# Experimental data from the supplement of paper PMC8728848.
# Some of the results follow.
# How the values were obtained:
# Experiment in all cases: glycan array binding signal (z-score within array); higher = stronger binding
# Conditions in all cases: glycan notation: IUPAC condensed, linker removed
# Fuc(a1-2)Gal = target: Fuc(a1-2)Gal
# Procedure, shortened: (§1)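 The binding signal is a Z-score computed within each array. Data were drawn from 3228 arrays in the Consortium for Functional Glycomics database, restricted to those with a known protein sequence. Scores were averaged over arrays of the same protein sequence at different concentrations or buffers, and over linkers, and negative values can be taken as non-binding.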
# Fuc(a1-2)Gal(b1-3)GalNAc = target: Fuc(a1-2)Gal(b1-3)GalNAc
# Procedure, shortened: as §1
# [1] = target: Fuc(a1-2)Gal(b1-3)GalNAc(a1-3)[Fuc(a1-2)]Gal(b1-4)Glc
# Procedure, shortened: as §1
# [2] = target: Fuc(a1-2)Gal(b1-3)GalNAc(a1-3)[Fuc(a1-2)]Gal(b1-4)GlcNAc
# Procedure, shortened: as §1
# [3] = target: Fuc(a1-2)Gal(b1-3)GalNAc(b1-3)Gal
# Procedure, shortened: as §1
# [4] = target: Fuc(a1-2)Gal(b1-3)GalNAc(b1-3)Gal(a1-4)Gal(b1-4)Glc
# Procedure, shortened: as §1
# [5] = target: Fuc(a1-2)Gal(b1-3)GalNAc(b1-4)[Neu5Ac(a2-3)]Gal(b1-4)Glc
# Procedure, shortened: as §1
# Fuc(a1-2)Gal(b1-3)GlcNAc = target: Fuc(a1-2)Gal(b1-3)GlcNAc
# Procedure, shortened: as §1
# [6] = target: Fuc(a1-2)Gal(b1-3)GlcNAc(b1-2)Man(a1-3)[Fuc(a1-2)Gal(b1-3)GlcNAc(b1-2)Man(a1-6)]Man(b1-4)GlcNAc(b1-4)GlcNAc
# Procedure, shortened: as §1
# [7] = target: Fuc(a1-2)Gal(b1-3)GlcNAc(b1-2)Man(a1-3)[Fuc(a1-2)Gal(b1-3)GlcNAc(b1-2)Man(a1-6)]Man(b1-4)GlcNAc(b1-4)[Fuc(a1-6)]GlcNAc
# Procedure, shortened: as §1
# [8] = target: Fuc(a1-2)Gal(b1-3)GlcNAc(b1-3)Gal(b1-4)Glc
# Procedure, shortened: as §1
# [9] = target: Fuc(a1-2)Gal(b1-3)GlcNAc(b1-3)GalNAc
# Procedure, shortened: as §1
# [10] = target: Fuc(a1-2)Gal(b1-3)GlcNAc(b1-3)[Fuc(a1-2)Gal(b1-3)GlcNAc(b1-6)]GalNAc
# Procedure, shortened: as §1
# [11] = target: Fuc(a1-2)Gal(b1-3)GlcNAc(b1-3)[Gal(b1-4)GlcNAc(b1-6)]Gal(b1-4)Glc
# Procedure, shortened: as §1
# [12] = target: Fuc(a1-2)Gal(b1-3)GlcNAc(b1-3)[Neu5Ac(a2-6)Gal(b1-4)GlcNAc(b1-6)]Gal(b1-4)Glc
# Procedure, shortened: as §1
# [13] = target: Fuc(a1-2)Gal(b1-3)GlcNAc6S
# Procedure, shortened: as §1
# [14] = target: Fuc(a1-2)Gal(b1-3)[Fuc(a1-4)]GlcNAc
# Procedure, shortened: as §1
# [15] = target: Fuc(a1-2)Gal(b1-3)[Fuc(a1-4)]GlcNAc(b1-2)Man(a1-3)[Fuc(a1-2)Gal(b1-3)[Fuc(a1-4)]GlcNAc(b1-2)Man(a1-3)]Man(b1-4)GlcNAc(b1-4)GlcNAc
# Procedure, shortened: as §1
# [16] = target: Fuc(a1-2)Gal(b1-3)[Fuc(a1-4)]GlcNAc(b1-2)Man(a1-3)[Fuc(a1-2)Gal(b1-3)[Fuc(a1-4)]GlcNAc(b1-2)Man(a1-6)]Man(b1-4)GlcNAc(b1-4)[Fuc(a1-6)]GlcNAc(b1-4)[Fuc(a1-6)]GlcNAc
# Procedure, shortened: as §1
# [17] = target: Fuc(a1-2)Gal(b1-3)[Fuc(a1-4)]GlcNAc(b1-3)[Fuc(a1-3)[Gal(b1-4)]GlcNAc(b1-6)]Gal(b1-4)Glc
# Procedure, shortened: as §1
# [18] = target: Fuc(a1-2)Gal(b1-3)[Fuc(a1-4)]GlcNAc(b1-3)[Gal(b1-4)GlcNAc(b1-6)]Gal(b1-4)Glc
# Procedure, shortened: as §1
# [19] = target: Fuc(a1-2)Gal(b1-4)Fuc(a1-3)]GlcNAc(b1-2)Man(a1-3)[Fuc(a1-2)Gal(b1-4)[Fuc(a1-3)]GlcNAc(b1-2)Man(a1-6)]Man(b1-4)GlcNAc(b1-4)GlcNAc
# Procedure, shortened: as §1
# Fuc(a1-2)Gal(b1-4)Glc = target: Fuc(a1-2)Gal(b1-4)Glc
# Procedure, shortened: as §1
# Fuc(a1-2)Gal(b1-4)Glc6S = target: Fuc(a1-2)Gal(b1-4)Glc6S
# Procedure, shortened: as §1
# Fuc(a1-2)Gal(b1-4)GlcNAc = target: Fuc(a1-2)Gal(b1-4)GlcNAc
# Procedure, shortened: as §1
# [20] = target: Fuc(a1-2)Gal(b1-4)GlcNAc(b1-2)Man
# Procedure, shortened: as §1
# [21] = target: Fuc(a1-2)Gal(b1-4)GlcNAc(b1-2)Man(a1-3)[Fuc(a1-2)Gal(b1-4)GlcNAc(b1-2)Man(a1-6)]Man(b1-4)GlcNAc(b1-4)GlcNAc
# Procedure, shortened: as §1
# [22] = target: Fuc(a1-2)Gal(b1-4)GlcNAc(b1-2)Man(a1-3)[Fuc(a1-2)Gal(b1-4)GlcNAc(b1-2)Man(a1-6)]Man(b1-4)GlcNAc(b1-4)[Fuc(a1-6)]GlcNAc
# Procedure, shortened: as §1
# [23] = target: Fuc(a1-2)Gal(b1-4)GlcNAc(b1-2)[Fuc(a1-2)Gal(b1-4)GlcNAc(b1-4)]Man(a1-3)[Fuc(a1-2)Gal(b1-4)GlcNAc(b1-2)Man(a1-6)]Man(b1-4)GlcNAc(b1-4)GlcNAc
# Procedure, shortened: as §1
# [24] = target: Fuc(a1-2)Gal(b1-4)GlcNAc(b1-3)Gal(b1-4)GlcNAc
# Procedure, shortened: as §1
# [25] = target: Fuc(a1-2)Gal(b1-4)GlcNAc(b1-3)Gal(b1-4)GlcNAc(b1-2)Man(a1-3)[Fuc(a1-2)Gal(b1-4)GlcNAc(b1-3)Gal(b1-4)GlcNAc(b1-2)Man(a1-6)]Man(b1-4)GlcNAc(b1-4)GlcNAc
# Procedure, shortened: as §1
# [26] = target: Fuc(a1-2)Gal(b1-4)GlcNAc(b1-3)Gal(b1-4)GlcNAc(b1-3)Gal(b1-4)GlcNAc
# Procedure, shortened: as §1
# [27] = target: Fuc(a1-2)Gal(b1-4)GlcNAc(b1-3)GalNAc
# Procedure, shortened: as §1
# [28] = target: Fuc(a1-2)Gal(b1-4)GlcNAc(b1-3)[Fuc(a1-2)Gal(b1-4)GlcNAc(b1-6)]GalNAc
# Procedure, shortened: as §1
# [29] = target: Fuc(a1-2)Gal(b1-4)GlcNAc(b1-3)[Fuc(a1-3)[Gal(b1-4)]GlcNAc(b1-6)]Gal(b1-4)Glc
# Procedure, shortened: as §1
# [30] = target: Fuc(a1-2)Gal(b1-4)GlcNAc(b1-6)GalNAc
# Procedure, shortened: as §1
# [31] = target: Fuc(a1-2)Gal(b1-4)GlcNAc6S
# Procedure, shortened: as §1
binder,measurement,setting,value
"HML-Native (Hypnea musciformis), P84871 (protein) QKFCTLDIAPVCCQIVIGGGMYTAGNACMCEGFVSGVGRCENPKECPCTREAQIPSCCSSRWGLVSVTGKCACDCLGGTVAFPEPCPSPY",glycan array binding signal (z-score),Fuc(a1-2)Gal,-0.262
same,glycan array binding signal (z-score),Fuc(a1-2)Gal(b1-3)GalNAc,-0.269
same,glycan array binding signal (z-score),[1],-0.253
same,glycan array binding signal (z-score),[2],-0.278
same,glycan array binding signal (z-score),[3],-0.098
same,glycan array binding signal (z-score),[4],-0.207
same,glycan array binding signal (z-score),[5],-0.224
same,glycan array binding signal (z-score),Fuc(a1-2)Gal(b1-3)GlcNAc,-0.288
same,glycan array binding signal (z-score),[6],0.013
same,glycan array binding signal (z-score),[7],2.85
same,glycan array binding signal (z-score),[8],-0.231
same,glycan array binding signal (z-score),[9],-0.258
same,glycan array binding signal (z-score),[10],-0.249
same,glycan array binding signal (z-score),[11],-0.256
same,glycan array binding signal (z-score),[12],-0.216
same,glycan array binding signal (z-score),[13],-0.215
same,glycan array binding signal (z-score),[14],-0.221
same,glycan array binding signal (z-score),[15],-0.12
same,glycan array binding signal (z-score),[16],3.06
same,glycan array binding signal (z-score),[17],-0.188
same,glycan array binding signal (z-score),[18],-0.199
same,glycan array binding signal (z-score),[19],-0.144
same,glycan array binding signal (z-score),Fuc(a1-2)Gal(b1-4)Glc,-0.237
same,glycan array binding signal (z-score),Fuc(a1-2)Gal(b1-4)Glc6S,-0.169
same,glycan array binding signal (z-score),Fuc(a1-2)Gal(b1-4)GlcNAc,-0.273
same,glycan array binding signal (z-score),[20],-0.193
same,glycan array binding signal (z-score),[21],0.004
same,glycan array binding signal (z-score),[22],1.81
same,glycan array binding signal (z-score),[23],-0.072
same,glycan array binding signal (z-score),[24],-0.17
same,glycan array binding signal (z-score),[25],0.017
same,glycan array binding signal (z-score),[26],-0.329
same,glycan array binding signal (z-score),[27],-0.11
same,glycan array binding signal (z-score),[28],-0.119
same,glycan array binding signal (z-score),[29],-0.17
same,glycan array binding signal (z-score),[30],-0.124
same,glycan array binding signal (z-score),[31],-0.271
